± gives the standard deviation of the averaged measurements. The full ranking holds about 33,000 sequences; the median of “E-score (dimensionless, -0.5 to 0.5)” is about -0.046, and the highest 2% start at about 0.36. Some of the results follow.

This assay has as its system T1, SpTbr T-box DNA-binding domain (GST fusion).
T1 sequence: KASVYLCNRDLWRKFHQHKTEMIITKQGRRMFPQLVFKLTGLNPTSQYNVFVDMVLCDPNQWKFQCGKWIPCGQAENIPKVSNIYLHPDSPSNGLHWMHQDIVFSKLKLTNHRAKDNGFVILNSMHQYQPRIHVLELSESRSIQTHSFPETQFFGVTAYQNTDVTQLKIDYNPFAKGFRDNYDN
Kind of assay: PBM E-score of 8-mer (E-score (dimensionless, -0.5 to 0.5)); Tbr is Tbrain of the sea star Patiria miniata (Pm) or the sea urchin Strongylocentrotus purpuratus (Sp); higher = stronger binding preference; most listed sequences are background and not binding sites. The settings on record: the construct has about 5 more residues each side. Put shortly: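 Expression of GST-fused Tbr T-box DNA-binding domains, each holding the full T-box plus roughly five flanking residues, was carried out in BL21 E. coli at 20 °C, with purification by glutathione affinity chromatography. Universal Agilent arrays made double-stranded by primer extension were incubated with the protein at 200 nM in PBS (pH 7.5), then scanned and quantified. All ungapped 8-mers were scored from probe intensities, and each received an enrichment E-score from the Universal PBM Analysis Suite, averaged over duplicate arrays.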
As to ACATGCGC, the “PBM E-score of 8-mer” value came out at 0.108 ± 0.049.
Regarding AAGGGGAC, the “PBM E-score of 8-mer” value was -0.175 ± 0.0059.
For TGCTATAA the value was -0.0597 ± 0.083; for AATAAATT, -0.0273 ± 0.041; for GTAATCTA, -0.178 ± 0.016.
For CACCATGG the value was 0.13 ± 0.043; for ACGCGCTC, 0.0372 ± 0.028.
To ATCTACAA belongs -0.197 ± 0.025.
As for AAAAGATC, the “PBM E-score of 8-mer” value is -0.214 ± 0.097.
For TGAAGTAA the value was -0.157 ± 0.065; for ACTTAACC, -0.0866 ± 0.049.
For GAGCTCCC the value was -0.06 ± 0.0044.
Take ATCAGGAG: the “PBM E-score of 8-mer” value was -0.129 ± 0.067.
Take AGCGCCAC: the “PBM E-score of 8-mer” value was 0.297 ± 0.03.
With AGCTTCAC, the “PBM E-score of 8-mer” value is 0.161 ± 0.013.
On to CTTATTCC, for which the “PBM E-score of 8-mer” value is -0.209 ± 0.031.
For CGGCGACC the value was 0.0143 ± 0.11.
For TACCTGGA the value was -0.0653 ± 0.076; for ATACAGAC, -0.0432 ± 0.019; for ATAGAGAC, -0.217 ± 0.028.
For GTAGATCA the value was -0.274 ± 0.075; for GAGATAAC, -0.0138 ± 0.0051.
For the sequence GTAAGTAA, the “PBM E-score of 8-mer” value came to 0.0966 ± 0.012.
To CGAGTAGC belongs 0.0635 ± 0.0055; to CGGTCATA, -0.0666 ± 0.019; to AAGCACGT, 0.0302 ± 0.0054.
For TAGCAAGA the value was -0.115 ± 0.072.
Take GCTACTAC: the “PBM E-score of 8-mer” value stood at 0.013 ± 0.035.
To ATTTGGAC belongs -0.184 ± 0.022; to GCAATCAA, 0.0342 ± 0.047.
To CCGCGACA belongs 0.242 ± 0.019; to ATTACCCC, -0.304 ± 0.11; to TACAATGA, -0.21 ± 0.013.
For GGTGAGGA the value was 0.384 ± 0.0073; for CTAAATAA, -0.0245 ± 0.099.
AATCGCCC: the “PBM E-score of 8-mer” value was -0.09 ± 0.0098.
For AGGATCAT the value was -0.109 ± 0.12.
For GCGGGGTA the value was -0.0031 ± 0.0049; for AGCCCGGG, -0.244 ± 0.011; for AATCCAGA, -0.152 ± 0.048.
Consider ATGCGGCG, for which the “PBM E-score of 8-mer” value was -0.00773 ± 0.061.
With GTCCTGAA, the “PBM E-score of 8-mer” value is -0.277 ± 0.031.
To AACTCGTG belongs 0.229 ± 0.0073; to AAACTGTT, 0.174 ± 0.053; to AACATTCT, -0.0673 ± 0.08.
Take CTGGACAC: the “PBM E-score of 8-mer” value is 0.024 ± 0.13.
With CAGAAGAA, the “PBM E-score of 8-mer” value is -0.158 ± 0.00076.
As to TCGGACGA, the “PBM E-score of 8-mer” value was -0.0842 ± 0.0028.
With ACTAAAAT, the “PBM E-score of 8-mer” value is -0.019 ± 0.0044.
Take AGCAACTG: the “PBM E-score of 8-mer” value came out at 0.132 ± 0.047.
For CTATTCCA the value was 0.00515 ± 0.045; for ATAGGGAA, -0.286 ± 0.039; for GGCACTCA, 0.135 ± 0.024.
To ATGGCTCG belongs -0.0192 ± 0.074; to CAGCATGC, -0.17 ± 0.14.
For CGACAAGA, the “PBM E-score of 8-mer” value is 0.2 ± 0.016.
On to CTCACTCA, for which the “PBM E-score of 8-mer” value was determined as 0.153 ± 0.034.
TGCGCGCA: the “PBM E-score of 8-mer” value was 0.1609 ± 0.00059.
To ATCCTTCC belongs -0.1921 ± 0.0014.
For AGAACTAC the value was -0.085 ± 0.031.
To CACCGCTG belongs 0.127 ± 0.081; to GAAGCCAA, -0.165 ± 0.085; to CGCAAAGA, 0.0425 ± 0.05.
For ATTAATGC, the “PBM E-score of 8-mer” value was -0.244 ± 0.046.
For GAATGCAC, the “PBM E-score of 8-mer” value is -0.154 ± 0.03.
For ACCCGCTC the value was -0.128 ± 0.14; for ATGGATCG, -0.115 ± 0.082.
For GCTGCTCA, the “PBM E-score of 8-mer” value was -0.158 ± 0.025.
In the case of CACAAGAG, the “PBM E-score of 8-mer” value is 0.0417 ± 0.047.
In the case of CTCGACGC, the “PBM E-score of 8-mer” value was determined as 0.18 ± 0.047.
To TAAGATTA belongs -0.199 ± 0.022; to CCAGATGG, -0.0803 ± 0.011.
To CCATCTAC belongs -0.194 ± 0.046; to CTGTACAC, 0.0318 ± 0.018.
Consider ACGTTCAC, for which the “PBM E-score of 8-mer” value is 0.369 ± 0.0053.
For ACTATAGC, the “PBM E-score of 8-mer” value came out at 0.143 ± 0.014.
Consider CGGAAATC, for which the “PBM E-score of 8-mer” value is -0.153 ± 0.031.
On to CATAGAGA, for which the “PBM E-score of 8-mer” value was -0.161 ± 0.012.
To CCGGACAG belongs -0.191 ± 0.035; to ACCACCGC, -0.0528 ± 0.033; to CAATTACA, 0.0525 ± 0.064.
On to AATGGCAA, for which the “PBM E-score of 8-mer” value is 0.127 ± 0.015.
To AGACGCTA belongs -0.00794 ± 0.01.
For CCCGCCTC, the “PBM E-score of 8-mer” value is 0.14 ± 0.11.
To CCCGGAAG belongs -0.115 ± 0.043.
To GGTAGGAC belongs -0.159 ± 0.035.

The record behind these values is the supplement of paper PMC4166925.
